# Measured values from the supplement of paper PMC3334620.
# The full ranking holds about 33,000 sequences; the median of “E-score (-0.5 to 0.5)” is about -0.021, and the highest 2% start at about 0.32. Some of the results follow.
# Target: T1, Zap1 (UniProt P47043)
# T1 sequence: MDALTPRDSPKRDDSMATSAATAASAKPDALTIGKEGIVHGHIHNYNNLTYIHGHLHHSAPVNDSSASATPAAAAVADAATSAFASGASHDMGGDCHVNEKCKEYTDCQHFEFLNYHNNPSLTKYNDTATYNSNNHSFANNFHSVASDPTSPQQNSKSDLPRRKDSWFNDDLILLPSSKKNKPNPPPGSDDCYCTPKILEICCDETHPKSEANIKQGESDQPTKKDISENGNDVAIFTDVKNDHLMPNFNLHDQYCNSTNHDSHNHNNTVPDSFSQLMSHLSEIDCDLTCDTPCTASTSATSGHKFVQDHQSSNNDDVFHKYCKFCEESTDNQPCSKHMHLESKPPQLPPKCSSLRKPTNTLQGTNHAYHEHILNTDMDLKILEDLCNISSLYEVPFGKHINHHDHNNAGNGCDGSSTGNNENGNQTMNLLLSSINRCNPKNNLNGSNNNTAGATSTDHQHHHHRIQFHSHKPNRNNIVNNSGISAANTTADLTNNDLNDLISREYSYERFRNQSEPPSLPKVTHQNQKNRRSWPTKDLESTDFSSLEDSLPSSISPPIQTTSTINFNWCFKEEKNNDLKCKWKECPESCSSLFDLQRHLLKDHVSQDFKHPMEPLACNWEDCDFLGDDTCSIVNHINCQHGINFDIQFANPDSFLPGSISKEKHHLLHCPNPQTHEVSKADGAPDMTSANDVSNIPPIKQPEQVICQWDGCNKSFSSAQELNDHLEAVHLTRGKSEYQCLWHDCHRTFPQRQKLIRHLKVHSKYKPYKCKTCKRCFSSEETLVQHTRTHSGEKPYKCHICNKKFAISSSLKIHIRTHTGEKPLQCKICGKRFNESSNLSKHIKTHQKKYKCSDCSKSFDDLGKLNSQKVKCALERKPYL
# Assay: PBM E-score (8-mer binding enrichment) (E-score (-0.5 to 0.5)); higher = stronger / more preferred TF binding; most listed sequences are background and not binding sites
# Conditions: protein concentration: 200 nM; construct: GST-full length
# Summary of the method: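 GST-tagged yeast TFs (full-length or DNA-binding domain) were made by PURExpress in vitro transcription/translation and applied at about 100-200 nM to universal all-10-mer Agilent arrays. The arrays were made double-stranded by primer extension, on fresh or once-stripped slides. Bound protein was detected with fluorescent anti-GST, and scans were normalised with masliner. Each ungapped eight-base word, pooled with its reverse complement, received an E-score (modified Wilcoxon-Mann-Whitney statistic) from the Universal PBM Analysis Suite.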
row,Sequence,PBM E-score
1,AGAAGTTG,-0.0206
2,CAAGGCAC,-0.133
3,GTAGTTCA,0.0574
4,CCCCGGGC,-0.133
5,CTGTGGAC,-0.0654
6,TATAAGCA,0.028
7,GTACCTGA,0.233
8,AAGCACTG,0.0765
9,AACTCCTA,0.0957
10,AGATATTG,0.0866
11,GAGGACTC,-0.266
12,CCGTTTGC,0.0589
13,CAAATCGA,-0.013
14,ATACGTTC,-0.294
15,GGTGCTTA,0.0113
16,ACTCTATC,-0.22
17,CAACAAAG,0.285
18,CCGCAATA,0.259
19,GACGCCGC,-0.11
20,ACCCGGCA,0.122
21,ACAGTACG,0.182
22,GATACGAA,-0.0257

row,Sequence,PBM E-score
1,ATGCGCAT,0.0779
2,AATAGTAC,0.0121
3,CGATGAGC,-0.0656
4,ATCGGGCG,-0.149
5,CGTTTGAA,0.0456
6,CGTACGAG,-0.232
7,GCGTGAAC,-0.0366
8,CTATGAAG,-0.00627
9,AAGGTGGC,0.164
10,AGTAAAAA,-0.0203
11,GCTCTGTA,-0.0845
12,AGTAGGGA,-0.245
13,CTACGCTC,-0.174
14,ATCTCCTC,-0.179
15,ACCACCGT,0.119
16,AATGAACC,0.171
17,AATATTCC,0.101
18,ACGGGGGG,-0.41
19,AGCCTCAC,-0.117
20,CCGAATGA,-0.0117
21,CGGCGCAC,-0.237
22,ATTTTGCG,0.00576

row,Sequence,PBM E-score
1,CCGTCGAG,-0.0651
2,GCGCCCCC,-0.233
3,AAATAATT,0.184
4,AGAAGTCA,-0.0338
5,AGGCGCGC,-0.113
6,CTCCTGCA,-0.284
7,ATACTGTC,0.00318
8,AGAGAACG,0.00415
9,ATGTTTAA,7e-05
10,CGACAGAA,0.0464
11,GAGTCTAA,-0.0295
12,ACAAAGGG,0.0567
13,CGGCTACG,-0.0443
14,CATCCGAG,-0.0532
15,GGCACACA,-0.229
16,CGTGTTAA,0.112
17,GCTTTCAA,0.0137
18,CGTGCCAC,-0.136
19,ATTGCTAG,-0.109
20,ACAGGCTC,-0.254
21,GGAGCTCA,-0.268
22,CGGTTCAA,-0.0126

row,Sequence,PBM E-score
1,GGGGTAAC,0.37
2,AGCGTGGA,-0.307
3,ATCACAAA,0.13
4,GCCAGGGA,-0.174
5,CACAGCCG,-0.0328
6,CTCAGAAC,0.133
7,CCGTTAAA,0.143
8,AGTCCTTA,-0.0359
9,AACATCGA,-0.0109
10,CAGGTCGG,0.0464
11,GCAGGAGA,-0.174
12,ACCACTTA,0.171
13,CTATCCGC,-0.0609
14,GACCCAGC,-0.127
15,CTTATTGA,0.0126
16,ATACTACG,0.0566
17,CAGCCATC,-0.176
18,AGCGGGCG,-0.118
19,ACCCGTAT,0.301
20,GCGTCTAC,-0.203
